Test results: PubChem BioAssay AID1159614 (National Center for Advancing Translational Sciences (NCATS), 2016)
Screen size: about 45,000 compounds; about 65 (0.1%) were called active. Calls follow the shape of the dose curve; as a rule, active = well fitted activation curve with a large enough effect; inconclusive = small, poorly fitted or top-dose-only effect; inactive = no such curve, though single readings can be large or run the other way. Some of the results follow.

Target: Galactocerebrosidase (Homo sapiens) (UniProt P54803)
Assay: A Novel Cell-Based Assay to Identify Small Molecules for B -Galactocerebrosidase; also: 0% is about no effect; nearly all actives have a fitted effect of over 65% in size
Conditions: 145M-Twi-hGALC-G270D cells (Twitcher mouse brain line with human GALC G270D), HMU-beta-Gal fluorescence, 48 h; series mostly up to 57.5 µM; activation: at the top concentration
In short: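 Fluorogenic HMU-b-Gal hydrolysis (0.1 mM final, pH 5.2 citrate-phosphate with 1 mg/mL sodium taurocholate; carbonate stop buffer) measures mutant GALC activity after compound treatment of live 145M-Twi Twitcher brain cells stably carrying human GALC-G270D, with wild-type GALC line alongside; activation sought.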

Sequence of UniProt P54803 (P54803 whole entry, looked up): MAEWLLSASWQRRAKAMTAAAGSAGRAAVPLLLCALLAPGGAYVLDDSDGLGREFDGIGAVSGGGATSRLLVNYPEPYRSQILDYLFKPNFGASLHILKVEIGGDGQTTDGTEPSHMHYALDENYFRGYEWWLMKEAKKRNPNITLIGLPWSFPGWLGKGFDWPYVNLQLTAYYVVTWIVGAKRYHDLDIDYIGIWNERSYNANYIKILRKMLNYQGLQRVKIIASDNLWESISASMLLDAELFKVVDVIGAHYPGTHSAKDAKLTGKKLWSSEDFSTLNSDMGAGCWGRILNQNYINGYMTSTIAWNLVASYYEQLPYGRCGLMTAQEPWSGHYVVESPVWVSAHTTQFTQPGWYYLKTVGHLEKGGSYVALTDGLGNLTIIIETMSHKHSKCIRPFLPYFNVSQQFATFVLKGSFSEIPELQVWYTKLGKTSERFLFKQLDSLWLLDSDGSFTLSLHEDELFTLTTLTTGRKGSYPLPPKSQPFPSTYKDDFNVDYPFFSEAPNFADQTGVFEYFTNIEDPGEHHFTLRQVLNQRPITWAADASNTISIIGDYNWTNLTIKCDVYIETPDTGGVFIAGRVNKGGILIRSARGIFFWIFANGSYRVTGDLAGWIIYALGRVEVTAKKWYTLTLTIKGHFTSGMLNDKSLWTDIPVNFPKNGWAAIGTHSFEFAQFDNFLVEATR

SMILES	activation
COc1ccc(N2CCN(C(=O)c3c(C)oc4nc(C)nc(N5CCCC5)c34)CC2)cc1	inactive: -11.4%
Cc1ccc(N(C)S(=O)(=O)c2c(-c3ccccc3)csc2C(=O)O)cc1	inactive: -10.9%
Cc1cc2nc(-c3cccc(NC(=O)COc4ccc(C(C)C)cc4)c3)oc2cc1C	inactive: -12.1%
Cc1ccccc1-c1nnc(SCC(=O)N2CCCc3ccccc32)o1	inactive: -10.8%
COc1ccc(-c2nc(C)c(CCNC(=O)c3cccs3)s2)cc1	inactive: -29.5%
Cc1ccc(-c2nc(C(=O)Nc3cccc(C#N)c3)c3n2CCCCC3)cc1	inactive: -32.1%
Cc1cccc(C(=O)OCc2cc(=O)n3nc(C4CC4)sc3n2)c1	inactive: 21.7%
O=C1c2ccccc2C(=O)C1(c1ccccc1)N1CCN(c2cccc(C(F)(F)F)c2)CC1	inactive: -6.12%
CCOc1ccccc1NC(=O)CCc1nc(-c2cccc(C)c2)no1	inactive: -27.2%
COc1ccc(-c2nc(SCC(=O)Nc3ccc4c(c3)OCO4)c(-c3ccc(F)cc3)[nH]2)cc1OC	inactive: -19.3%
CC(C)Oc1ccc(CNS(=O)(=O)c2csc(C(N)=O)c2)cc1	inactive: -4.54%
CCCNC(=O)c1c(NC(=O)c2ccccc2F)sc2c1CCCCC2	inactive: -18.2%
Cc1nc(-c2ccc(S(=O)(=O)Nc3ccc(OC(F)(F)F)cc3)cc2)co1	inactive: -10.8%
Cc1ccc(NC(=O)N2CCC(CN3CCCCCC3)CC2)c(Cl)c1	inactive: -7.23%
CC(C)c1ccc(N2C(=O)CSC23C(=O)N(Cc2ccccc2F)c2ccccc23)cc1 (stereo unspecified)	inactive: -41.6%
CCC(=O)N1CCc2cc(S(=O)(=O)NCCC(=O)NCc3ccc(OC)cc3)ccc21	inactive: -25.2%
COc1cccc(-n2c(=O)c3sccc3n(Cc3cc(=O)n4cc(Cl)ccc4n3)c2=O)c1	inactive: 0.304%
Cc1nc2nncn2c(Nc2ccc(F)cc2)c1C	inactive: -5.32%
Cc1ccc(-c2nc(CCNC(=O)C(=O)Nc3ccc(F)cc3F)cs2)cc1	inactive: -10.2%
Cc1ccc(C(=O)Nc2cc3cc(Cl)ccc3oc2=O)cc1	inactive: -16.1%
Fc1ccc(C(c2nnc(-c3ccccc3)o2)N2CCN(c3ccccc3)CC2)c(Cl)c1 (stereo unspecified)	inactive: 4.73%
CC(C)C(=O)Nc1c(C(=O)N2CCN(c3ccccc3F)CC2)oc2ccccc12	inactive: -19.9%
Cc1ccc(-c2nc3sc(CCNC(=O)c4ccco4)c(C)n3n2)cc1	inactive: -27.1%
COc1ccccc1NCc1nnc2n1CCCCC2	inactive: -11.3%

SMILES	activation
COc1ccccc1CNC(=O)CCCN1C(=O)CCn2nc(-c3cn(C)c4ccccc34)cc21	inactive: -3.25%
Cc1ccc2c(c1)N(CC(=O)NCCCN1CCCCC1)C(=O)c1cccnc1O2	inactive: -8.82%
CCOc1ccc(N2CC(NC(=O)c3cc4ccccc4o3)CC2=O)cc1 (stereo unspecified)	inactive: -15.9%
COc1cccc(NC(=O)CSc2c(C)cnc3c2c(=O)n(C)c(=O)n3C)c1	inactive: -11%
CCCOC(=O)c1c(NC(=O)c2cc3nc(-c4ccc(OC)cc4)cc(C(F)(F)F)n3n2)sc2c1CCCC2	inactive: 22.6%
COc1cc(Cl)c(C)cc1NC(=O)c1nn(-c2ccc(C)cc2)c(=O)n(C)c1=O	inactive: -10.4%
CCOc1ccc(S(=O)(=O)N(C(C)=O)c2ccc3oc(C)c(C(=O)OC)c3c2)cc1	inactive: -35%
Cc1ccc(CSc2nc3ccncc3n2Cc2nc(-c3ccc(Cl)cc3)oc2C)cc1	inactive: -7.67%
COc1ccccc1N1CCN(C(=O)c2cnn(C(C)(C)C)c2C2CCN(C(=O)OC(C)(C)C)CC2)CC1	inactive: -25.7%
CCOC(=O)c1ccc(NC(=O)C(=O)NCCc2ccc(OC)cc2)cc1	inactive: -9.82%
Cc1ccc(C)c(NC(=O)Cn2c(-c3nonc3N)nc3ccccc32)c1	inactive: 3.89%
COc1ccc2oc(=O)c(C(=O)N3CCN(c4cc(Cl)ccc4Cl)CC3)cc2c1	inactive: -2.12%
Cc1ccc2nc(Cl)c3cc(C(=O)NC4CCCCC4)sc3c2c1	inactive: -10.3%
COc1ccc(OC)c(NC(=O)C(NS(=O)(=O)c2ccc3c(c2)CCCC(=O)N3)C(C)C)c1 (stereo unspecified)	inactive: -20.7%
Cc1oc(-c2ccccc2Cl)nc1CS(=O)(=O)CC(=O)NC(C)CCc1ccccc1 (stereo unspecified)	inactive: -36%
COc1ccc(C(=O)Nc2nc3nc(C)c(Cl)c(=O)n3[nH]2)cc1	inactive: -15.4%
CCOc1ccc(NC(=O)Cn2c(=O)c(CNc3ccc(OC)cc3)cc3ccc(OC)cc32)cc1	inactive: -4.06%
Cc1ccc(-c2cnc(NCc3c(F)cccc3Cl)n2C)cc1	inactive: -9.45%
CCOC(=O)c1cc(S(=O)(=O)N2CCN(c3cc(Cl)ccc3C)CC2)[nH]n1	inactive: -2.2%
CCOC(=O)c1ccc(NC(=O)c2nsc3ccccc23)cc1	inactive: -25.3%
NS(=O)(=O)c1ccc(Cl)c(S(N)(=O)=O)c1	inactive: -7.2%
CN1CCc2nc3sc(C(=O)Nc4c(F)cccc4F)c(N)c3cc2C1	inactive: -19.9%
Cc1ccccc1NC(=O)CCc1c(C)nc2c(c1C)c(=O)n(C)c(=O)n2C	inactive: -4.94%
CCCN(C(=O)Cn1cnc2sc(C)c(S(=O)(=O)N3CCN(c4ncccn4)CC3)c2c1=O)c1cccc(C)c1	inactive: 14.4%

SMILES	activation
CCc1ccc(OCC(=O)Nc2c(C(=O)c3ccccc3)oc3ccccc23)cc1	inactive: -5.4%
Cc1cc(=O)n2nc(N3CCC(C(=O)NCc4ccccc4Cl)CC3)sc2n1	inactive: -4.66%
Cc1nc(-c2cccc(S(=O)(=O)N3CCC(C(=O)NCc4ccccc4)CC3)c2)no1	inactive: -5.92%
Cc1cccc(CN2C(=O)c3ccccc3S(=O)(=O)c3ccc(C(=O)N4CCCC4)cc32)c1	inactive: -12.9%
COc1ccc(OC)c(S(=O)(=O)Nc2ccc3[nH]c(=O)[nH]c3c2)c1	inactive: -10.7%
COc1cccc(NC(=O)c2nnn(Cc3cccc(C(F)(F)F)c3)c2N)c1	inactive: -18.7%
COc1ccc(NS(=O)(=O)c2ccc3c(c2)oc(=O)n3C)cc1Cl	inactive: -14%
CCn1ccc2cc(S(=O)(=O)N3CCCN(C(=O)Nc4ccc(C)cc4)CC3)ccc21	inactive: -22.9%
Cc1ccc(S(=O)(=O)c2nnn3c2nc(N2CCCCC2)c2sccc23)cc1	inactive: 6.39%
CCN(CC)S(=O)(=O)c1ccc(NC(=O)[C@H](CCSC)N2Cc3ccccc3C2=O)cc1	inactive: -9.87%
Cc1c(C(=O)NN2CCCCC2)nn(-c2ccc(Cl)cc2Cl)c1-c1ccc(Cl)cc1	inactive: -17.4%
Cc1ccc(N2CCN(c3cc(C)nc4c(-c5ccc(Cl)cc5)c(C)nn34)CC2C)cc1 (stereo unspecified)	inactive: -5.43%
NC(=O)Cn1c(=O)n(-c2ccc(F)c(Cl)c2)c(=O)c2sc3ccccc3c21	inactive: -11.1%
CCc1nc(SCc2cc(=O)c3cc(F)ccc3[nH]2)n[nH]1	inactive: 0.269%
CC(=O)c1cccc(NC(=O)CN2C(=O)CN(C)C(=O)c3ccccc32)c1	inactive: -2.63%
Cc1cc(C)cc(N(C)S(=O)(=O)c2nnc(NC(=O)COc3ccc(Cl)cc3)s2)c1	inactive: -19.2%
Cc1cccc(Cn2c(-c3cccs3)nc3ccccc32)c1	inactive: -15.7%
CCOc1ccc(Cn2c(CNS(=O)(=O)c3cccs3)nc3cccnc32)cc1	inactive: -14.7%
CCOc1ccc(NC(=O)c2ccc3c(c2)c(C)c(C)n3Cc2ccc(F)cc2)cc1	inactive: -15.6%
Cc1cn2c(=O)c(S(=O)(=O)NC(C)c3ccccc3)c(C)nc2s1 (stereo unspecified)	inactive: -15.1%
Cc1ccc(C)c2sc(N3CCN(C(=O)c4ccco4)CC3)nc12	inactive: -35.9%
Cc1ccc(NC(=O)Cn2ncc3c4ccccc4n(Cc4ccccc4)c3c2=O)cc1Cl	inactive: -6.54%
Cc1ccc(Cn2c(CN3CCC(C(=O)NCC(C)c4ccccc4)CC3)cc3ccccc32)cc1 (stereo unspecified)	inactive: -13.7%
C[C@](N)(Cc1ccc(O)c(O)c1)C(=O)O	inactive: -20.1%

SMILES	activation
CCOC(=O)c1c(NC(=O)CSc2cn(CCNC(=O)c3c(F)cccc3F)c3ccccc23)sc2c1CCCC2	inactive: 0.504%
Cc1ccc(-c2cc(C(=O)Nc3c(C(=O)c4ccc(C)c(F)c4)oc4ccccc34)no2)cc1	inactive: -13.1%
CCOCCc1nn2c(=O)cc(COC(=O)c3cccc(C)c3)nc2s1	inactive: -7.46%
Cc1ccc(C)c(N2CCN(C(=O)C3CCCN(S(=O)(=O)c4cccc5nonc45)C3)CC2)c1 (stereo unspecified)	inactive: -17.1%
COC(=O)c1sccc1S(=O)(=O)N1CCN(c2ccc(C(C)=O)cc2)CC1	inactive: 0.778%
COc1ccc(Cl)cc1NC(=O)Cn1nnc(C(=O)NCc2ccc3c(c2)OCO3)c1N	inactive: -28.4%
Cn1c(=O)c2c(n3c4ccccc4nc13)NC(=O)CC2c1cccc(Cl)c1 (stereo unspecified)	inactive: -0.933%
CCN(CC)CCOC(=O)c1ccc(NC(=O)c2cc3cccc(OC)c3oc2=O)cc1	inactive: -6.36%
Cc1ccc(Cl)cc1N1CCN(S(=O)(=O)c2ccc(-c3cnc(C4CC4)o3)cc2)CC1	inactive: -16.4%
COc1ccc(S(=O)(=O)NCCc2sc(-c3ccccc3)nc2C)cc1F	inactive: 10.2%
CC(=O)c1ccc(NC(=O)c2cc(C3CC3)nc3c2c(C)nn3-c2ccc(C)cc2)cc1	inactive: -17.9%
CCCOc1ccc(-c2cccc(NS(=O)(=O)c3ccc(CC)cc3)c2)nn1	inactive: -4.95%
COc1ccc(NC(=O)CN2CCN(c3ccccc3F)CC2)c(OC)c1	inactive: -12.2%
COc1ccc(C(=O)N2CCN(C(=O)COc3ccc(C)cc3)CC2)cc1OC	inactive: -20.1%
CC(C)c1ccc(NC(=O)CN2C(=O)CCc3cc(S(=O)(=O)N4CCOCC4)ccc32)cc1	inactive: -0.113%
CC(C)c1ccc(NC(=O)c2ccc(F)c(S(=O)(=O)N3CCN(c4ccccc4F)CC3)c2)cc1	inactive: -13.2%
O=C(Nc1ccccc1F)C(Cc1ccccc1)N1Cc2ccccc2C1=O (stereo unspecified)	inactive: -9.43%
COc1ccc(S(=O)(=O)NCCc2sc(-c3cccc(F)c3)nc2C)cc1	inactive: -10.3%
COc1cc2c(C(=O)N3CCN(c4cc(Cl)ccc4C)CC3)cn(CC(C)C)c(=O)c2cc1OC	inactive: -22.5%
O=C(Cn1cc(S(=O)(=O)N2CCN(c3ccccc3F)CC2)c2ccccc2c1=O)Nc1ccc(F)cc1Cl	inactive: 0.141%
COc1cc(NS(=O)(=O)c2ccc(NC(=O)c3ccc(OC)c(Br)c3)cc2)nc(OC)n1	inactive: -5.64%
O=C(Nc1ccc(F)cc1F)N1CCc2c(sc3c2CCCC3)C1c1ccc(F)cc1 (stereo unspecified)	inactive: -12%
Cc1ccc(-c2nn3c(=O)cc(CN4CCN(C(=O)c5ccc(C(C)(C)C)cc5)CC4)nc3s2)cc1	inactive: -11.2%
COCCn1c(=NC(=O)c2ccc3c(c2)OCCO3)sc2cc(NC(C)=O)ccc21	inactive: -16.7%
